Some of the results follow.
tested on: PfSIP2 AP2 domain 1 (GST-tagged); assay: gcPBM binding intensity (ln(normalized median fluorescence intensity)); higher = stronger DNA binding
Method in brief: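 The highest Masliner-normalised natural-log median intensity across replicate spots of either probe orientation is reported as binding intensity. GST-tagged P. falciparum DNA-binding domains expressed in E. coli were applied for 1 h to an Agilent 4 × 180k array of primer-extended double-stranded 36-bp intergenic genomic probes plus negative controls, and bound protein was detected with Alexa488 anti-GST antibody and scanned at 488 nm.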

Sequence	gcPBM binding intensity (ln)
ATATATATATATATTTGTACAGATTTATATTATAAT [XGTACX_site7612]	9.49
CCATATAATATGAACAGTACACACAAAATAAATTCG [XGTACX_site7590]	7.08
AAATATTATAGCACCACACACTTATTTTATATATAT [CACACA_site5281]	8.08
GAAAATTTAATATAGAACGAAAGCATACACATATAT [GTGCAC_negctrl_site424]	7.06
ATATGTGATTTCTAATGTACACAAAAAAAAAAAAAA [XGTACX_site7701]	7.15
TTATGTCATAAATGCACACATATATAAATACAGATA [CACACA_site4959]	7.32
TCTTCAAACAAAAAAAATAATAAAAAGTACAAAATG [CACACA_negctrl_site363]	7.35
TTTTTGTTTTTGTTTTGTACTCATACATACTATCAT [XGTACX_site4210]	6.99
GGGGTATCTTCCTATGCACACTTGTTATGTACTAAC [CACACA_site4610]	7.89
CTTTTATTAAAATTCACACACATAAATTTTTATAAA [CACACA_site1993]	6.99
ATATATACGTATGAATGTATATTTGTTTGATTTTTT [CACACA_negctrl_site835]	6.77
ATTTTCATGATAAAGGTGCAATTATTTTTATAAGAA	10.8
TATATATATATATATGGTACAGTTTATGCCTTTTAA [XGTACX_site6695]	9.38
TTATTTATAATATATACACACTAACATTATTTATCC [CACACA_site4835]	6.9
TATAATATATACAAATGTACATATATATATATATAT [XGTACX_site4559]	9.73
ATATATATGTGAAAATCACACATTGCTTATCTGTAA [CACACA_site6044]	6.9
TGTTTTATTATTTATAGTACATAAAAAAATATTGTA [XGTACX_site8963]	7.12
AACAATATTATTGTTTGTACTCACATATATAATATA [XGTACX_site8063]	7.13
TTCGTATATTATTAATGTACATTATAAAATCAATAT [XGTACX_site5751]	7.08
AAAAAAACATGAAACACACACAAATATATATATATA [CACACA_site1884]	9.56
AAAAAAAAAAAAAAAAAAAAAAAAAAAATTCTATAT [GTGCAC_negctrl_site468]	8.67
AAGGCATACAATACCTGTACGCAACCTTAAAAAGAA [XGTACX_site6070]	7.34

Sequence	gcPBM binding intensity (ln)
AGATATTTCATTTAAAGTACATTCTTTATCACATAA [XGTACX_site6731]	6.99
CACACGCACAAAAACACACACAAAGGTGTTCTTATA [CACACA_site6724]	7.12
TTATTTTTTTTTTTTCGTACTTATTTATCTTGGTAT [XGTACX_site78]	6.86
GGATTTATTATATATACACACATACATATATATATA [CACACA_site8669]	9.44
GTCTAAGCTTATAGGCGTACACATGAATATGGATGT [XGTACX_site2439]	7.16
ATACATAAAATTAAAACACACATTTGATTAAATACG [CACACA_site7088]	7.08
AAAGGATACAGACACACACACACATATATATATATA [CACACA_site906]	9.05
ATTATATAATTGTCTTCACACACACCGATATATATA [CACACA_site8883]	7.39
ATAAGAAAAAAGAACTGTACTAATAAAATATAAAAA [XGTACX_site3715]	6.99
ATAATATATATACAAACACACAATTGTGTCCACATT [CACACA_site1747]	7.15
TGTACATATATATAATATATATATCATCATATTTTC [CACACA_negctrl_site1750]	7.21
TCCTTAAAATATATCACACATTTCGTTCATTTATAA [CACACA_site4346]	7.11
AGTATACGAATAAAATGTACATACAAATTGTTGTAA [XGTACX_site36]	6.89
TATATATATATATCCACACACATACAGATATTAAGA [CACACA_site4214]	9.28
ATATATATATATATATGTACATATATATACATATAT [XGTACX_site6987]	9.42
ATTCACGTGTCTTAAAAAAAAAAAAAAGAAAAAAAG [CACACA_negctrl_site573]	6.85
TCAGGAATATAAAGTGCACACATAATTTGGGGGCAA [CACACA_site7974]	11.2
TATATAAGGATATATACACACATATAGGTATTTATA [CACACA_site7092]	6.94
TTTTAAAAAAATAAAAAATAATAAAAAAAATAAAAA [CACACA_negctrl_site1693]	6.76
AATATGATTATTACCCGTACATATTACCTTATGGTA [XGTACX_site1714]	6.78
AATGATATTATCTCTTCACACACTCACATACAGACA [CACACA_site8335]	7.03
AAAAATAAATAAAGTGGTACATAAAAAAGAGAAATT [XGTACX_site874]	7.08

Sequence	gcPBM binding intensity (ln)
GTGCATATGTAGATATGTACATATTTATTTATTATT [XGTACX_site7343]	9.21
GCGGCGGTATCATGCACACGTATATATTGTAACAGT [CACACA_site4958]	7.43
TCATTGAAAAAAATGTGTACTCATCAAGTATATATT [XGTACX_site6430]	7.29
TTTACAGATACATTCACACATAAATTCATGTATAAT [CACACA_site5387]	7.03
ATATATAATTTTTGTTGTACATTATAAAAATAATTA [XGTACX_site2738]	7.2
ATTGTTATGAGAACAGCACACAAGCTACATCATATA [CACACA_site8192]	6.99
TTTTTTTTTTTTTCTTCACACACAGTACTACTATTT [CACACA_site8759]	7.01
TTAGCTTTTTTTTAAACATGCAACTACTTGATCCAC [TGCATGCA_site1017]	7.07
TATTTATTATTATGTACACACTATATTAAAACATAA [CACACA_site4549]	7.08
AGTATACGCAGACACACACACACATATATATATATA [CACACA_site1735]	9.65
TATGTGAATCCTAAGTGTACACATCTTACATATATA [XGTACX_site2506]	7.46
GGTATATGCATAAAGAGTACGTAACTTCTTTTTGTT [XGTACX_site6344]	7.31
ATAAGATGATTAATTACACACTTTATAGGATATTTA [CACACA_site1711]	6.76
AAATGTGTAAATATAATTAGTTTCACAAAACAAATA [GTGCAC_negctrl_site543]	6.78
TATATAATATTCTACACACCAACAACAAACATATAT [CACACA_site567]	7.16
ATATTCTGATTTTAGATGCACTTCGTTAACAAAATA [GTGCAC_site9958]	7.93
ATATATATATTTATATGTACATAATATAAAATTTCT [XGTACX_site3720]	8.43
TTATATATATGTGTATGTACATATATATATATATAT [XGTACX_site1141]	9.54
AAAAGAATAATAATTTATGTATATTAATTAAAGAAT [XGTACX_negctrl_site402]	6.94
TATCATATATTATATGCACACATGTTTTTCAAGAAT [CACACA_site1892]	7.6
AAACGTAACATATATATATATATATATAAGATATAT [CACACA_negctrl_site126]	7.85
ATAAATCTACACCGCACACAAAAACAACAAATATTA [CACACA_site5396]	7.3

Sequence	gcPBM binding intensity (ln)
AATGAATATATATAAATATATATATATATATATATA [CACACA_negctrl_site1494]	9.61
ATATTTGTATAAATTGCACACTTTATTTTTTTTAAG [CACACA_site1558]	6.97
ATGTTATTACATAATTGTACATTTTGAGCAATTAAG [XGTACX_site4640]	6.85
AAATTCAATTTGCGCTGTACATGAAGATATAAATTT [XGTACX_site4844]	6.9
ATACCTGTTGTGTTACGTACATAATTTTAATGTTTG [XGTACX_site8181]	7.13
AAAAAAAACACGCGCACACACACACCCACAGACACA [CACACA_site5253]	7.1
TATATATATAAATACACACACACACCCCAAAGCGTA [CACACA_site4211]	8.01
TATTTTTTAAAAAATTATAAATAAAATTATATTACG [CACACA_negctrl_site324]	7.04
TATAATATATTCACTCGTACATATTTAATAATATCT [XGTACX_site6209]	7.03
ACAGTATATTAAAAAATACACACGTATTATATCTAC [CACACA_site2640]	6.82
ATTTTATTTTTGTGCACACTGATAAATTGAAAAGAG [CACACA_site2948]	10.1
TATATATATATAATATGTACATATATTAAGCATTTT [XGTACX_site4470]	8.79
AAAAAAAAAAATTAAAGTACTAATTAAAATTATATG [XGTACX_site5289]	6.64
TTTTAATTAAATAAATGTACTCATTCTATTATTTAT [XGTACX_site3032]	6.98
ATAAATTTTTTATGAACACACAAATACCCACGCTCA [CACACA_site2659]	7
ATGTATAAACAAAAGGGTACATATATATATATATAT [XGTACX_site2087]	9.03
AGAAAAATTACAAAATGTACATAATGTGTTATTAAT [XGTACX_site7877]	6.92
ATTAAGTACTAAAAAGTGCAGTTCGGTACTGTGCTT [GTGCAC_site9755]	8.08
AAGTACATACATAAAACACACACATATATATATATA [CACACA_site8541]	9.76
AATAAAAAACATGAAAGTACTTTAAAAAAGGTAATA [XGTACX_site1897]	6.94
AATATATAAATCAATAGTACATATATATATATATAT [XGTACX_site3898]	9.55
ATTAAATATGAGGGAACACACACATGATATATAAAT [CACACA_site8755]	6.98
